Screen size: about 46,000 compounds; about 60 (0.1%) were called active. Inconclusive results (about 3%) are left out. The call rests on the fitted dose curve; in most records, active means well fitted inhibition curve with a large enough effect; inconclusive means small, poorly fitted or top-dose-only effect; inactive means no such curve, though single readings can be large or run the other way. The list shows a part of the results.
Assay: Primary qHTS assay for Inhibitors of ovarian cancer metastasis using an organotypic tumor microenvironment (TME) model. Further: nearly all actives have a fitted effect of over 65% in size.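 On activity change, negative = inhibition: plate controls were DMSO wells for no effect and tomatine positive control wells for full effect.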
Details: SKOV3ip1-GFP adhesion/invasion on 3D omental model, fluorescence; series mostly up to 45.8 µM; activity change, negative = inhibition: at the top concentration
Method in brief: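 qHTS, 4-pt dose (0.36-46 umol/L); SKOV3ip1-GFP, 1,200 cells/well, no FBS; primary omental fibroblast/mesothelial co-culture 48 h pre-grown; 2 h RT + 16 h 37 C; PBS wash, 4% PFA; GFP count 488/509 nm.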

Activity change, negative = inhibition, inactive:
COc1ccc(CNC(=O)c2cc3c(-c4ccccc4F)nn(C)c3s2)cc1 10.4%, COc1ccc(OC)c(NC(=O)c2c(NCc3ccc(OC)c(OC)c3)sc3c2CCC3)c1 4.29%, O=C(Nc1ccc(Br)cc1F)C(NS(=O)(=O)c1cccc2nsnc12)c1ccccc1 (stereo unspecified) 9.01%, COc1cccc(Cc2nc3ccccc3nc2SCC(=O)N2CCN(c3ccccc3)CC2)c1 -6.15%, O=C(Cn1c(-c2cccs2)cc2cc(F)ccc21)N1CCN(c2cccc(Cl)c2)CC1 -18.8%, Cc1ccccc1Cn1c2ccccc2c2cnn(CC(=O)NCCCc3ccccc3)c(=O)c21 -9.52%, Cc1ccc(CCNc2nc3c(S(=O)(=O)c4ccccc4)nnn3c3ccsc23)cc1 -3.52%, Cc1c(C(=O)NCc2ccccc2)sc2nc[nH]c(=O)c12 16.1%, O=C(Nc1cc(-c2nc3ccccc3o2)ccc1Cl)c1ccc(Br)o1 12%, COc1ccc(-c2cc(C(F)(F)F)nc(NCc3ccc(Cl)cc3)n2)cc1 3.69%, COc1ccccc1CNC(=O)CSc1cc(=O)n(C)c2ccccc12 3.29%, Cn1nc(C(=O)N2CCN(c3ccc(Cl)cc3)CC2)c2c1-c1ccccc1S(=O)(=O)C2 3.02%, COc1cccc2c1cc1c(=O)n(CC(=O)O)nc(C)n12 4.97%, CC(=O)Nc1ccc(S(=O)(=O)NC2(C(F)(F)F)NC(=O)N(c3ccccc3F)C2=O)cc1 (stereo unspecified) 0.724%, CCOc1ccc(-c2c(C)nn3c(C)c(C(=O)NCCc4ccccc4)cnc23)cc1OCC -0.0403%, COc1cccc(-c2cc(C(=O)Nc3ccc(Br)c(C)c3)[nH]n2)c1 -7.62%, O=C1CC(c2nnc(Cc3cccc(Cl)c3)o2)CN1c1ccccc1 (stereo unspecified) 0.0919%, CC(C)(Sc1ccc(CCN(CCCCC2CCCCC2)C(=O)NC2CCCCC2)cc1)C(=O)O 10.8%, CC1CCCCN1S(=O)(=O)c1cc2c(=O)nc3ccccn3c2cc1Cl (stereo unspecified) -1.62%, CCOc1ccc(C2C(C(=O)Nc3ccccc3OC)=C(C)Nc3c(C(=O)Nc4cccc(C)c4)cnn32)cc1 (stereo unspecified) -1.53%, Cc1cccc(C)c1NS(=O)(=O)c1ccc2c(c1)[C@H]1C=CC[C@H]1[C@@H](c1ccc(Cl)cc1)N2 3.03%, CCn1c(CC2C(=O)Nc3ccccc32)nc2ccccc2c1=O (stereo unspecified) -16.2%, COc1ccc(CCNC(=O)c2cnc3sc(N4CCOCC4)nn3c2=O)cc1 -2.11%, CCOC(=O)c1cnc2c(ccc3ccccc32)c1Nc1cccc(Cl)c1 2.95%, CC1CCN(c2oc(-c3cccs3)nc2S(=O)(=O)c2ccccc2)CC1 -12.2%, CCOc1ccc(CNC(=O)C2CCN(c3nc4ccccc4nc3C(F)(F)F)CC2)cc1OC 7.38%, CCc1c(C)sc2c1CCN(Cc1ccccc1C#N)C2c1ccccc1 (stereo unspecified) -21.5%, COc1ccc(-n2nc3ccc(NC(=O)c4cccc(OCCC(C)C)c4)cc3n2)cc1 9.53%, COc1ccc(-n2cc(-c3ccc4c(c3)OCO4)n(CC(=O)Nc3cc(Cl)ccc3C)c2=O)cc1 -3.57%, Cc1nn(C)c2c1c(-c1ccccc1)cc(=O)n2Cc1ccc(F)cc1 1.97%, COc1ccc(C2=NS(=O)(=O)N(C)C(C(=O)NC(C)c3ccccc3)=C2)cc1 (stereo unspecified) 0.735%, COc1ccc(C)cc1NC(=O)c1nnn(Cc2cccc(Br)c2)c1N -27.5%, Cc1ccc(NC(=O)CCC(=O)N2Cc3ccccc3Oc3ncccc32)cc1Cl 7.25%, CCOC(=O)c1cnc2ccc(OC)cc2c1Nc1ccc(OCc2ccccc2Cl)cc1 0.947%, COc1ccc(CNC(=O)c2cnc(N3CCCC3)nc2C)c(OC)c1 -1.07%, CCc1ccc(C(=O)c2cn(CC(=O)Nc3cc(OC)ccc3OC)c3ccc(Cl)cc3c2=O)cc1 -20%, CCN(C(=O)CSc1nc2ccccc2n1CC(=O)N(C)C1CCCCC1)c1ccccc1 -3.6%, CCOC(=O)c1cc(-c2ccccc2)n(CCC(=O)NCCc2ccccc2)c1C -6.54%, Cc1ccc2oc(C(=O)Nc3ccc(S(=O)(=O)N4CCCCC4C)cc3)cc(=O)c2c1 (stereo unspecified) -14.9%, CCN(CC)S(=O)(=O)c1ccc2c(c1)N(CC(=O)NCCCN1CCN(c3ccc(OC)cc3)CC1)C(=O)CO2 -6.03%, CCCS(=O)(=O)N1CCC(n2c(C)nc3cccnc32)CC1 4.33%, CCOC(=O)c1ccc(NC(=O)N2CC3CCCN3c3ccccc32)cc1 (stereo unspecified) 2.29%, Cc1ccc2nc(-c3cccs3)c(Nc3ccc4c(c3)OCCO4)n2c1 -3.65%, O=C(Cn1cc(S(=O)(=O)N2CCCC2)c(S(=O)(=O)N2CCCC2)c1)Nc1ccc(F)cc1 25.2%, CCC1CCCCN1C(=O)CSc1nnc(-c2ccc(OC)c(OC)c2)o1 (stereo unspecified) 17.4%, CC(=O)c1cccc(NC(=O)CCc2c(C)nc3nc(CN)nn3c2C)c1 14.6%, COc1ccccc1NC(=O)CSc1cn(CC(=O)N2CCCC2)c2ccccc12 6.57%, COc1ccc(Cl)cc1Nc1ccc2cc(S(=O)(=O)N3CCCCC3)ccc2n1 2.44%, CCOc1ccc(N2CC(C)Cn3c2nc2c3c(=O)n(Cc3c(F)cccc3Cl)c(=O)n2C)cc1 (stereo unspecified) 5.75%, CCOc1ccc(NC(=O)c2ccc(F)c(S(=O)(=O)N(Cc3ccc(C(=O)OC)cc3)Cc3ccc(OC)c(OC)c3)c2)cc1 4.54%, COc1ccccc1NC(=O)C1=C(C)Nc2nc3ccccc3n2C1c1ccccc1Cl (stereo unspecified) 4.62%, CN(C)c1ncc(C(=O)NCc2ccc(Cl)cc2)cn1 1.27%, CCC(=O)N1CCc2cc(S(=O)(=O)NCc3ccc(C)cc3)ccc21 1.98%, CCOCCc1nnc(NC(=O)C(=O)c2cc(C)n(-c3ccc(Cl)cc3)c2C)s1 -5.97%, Cc1cc2n(n1)CCCN2C(=O)Nc1ccc(F)c(Cl)c1 1.3%, O=C(CSc1ncc(-c2ccccc2)[nH]1)Nc1cccc(Br)c1 -1.55%, Cc1cc(OCC(=O)N2CCC(c3nc4ccccc4s3)CC2)ccc1Cl -7.26%, COc1cccc(-c2nc3c(C#N)c[nH]n3c2NC2CCCC2)c1OC -9.42%, COc1cc2nc(NC(=O)c3ccc(S(=O)(=O)N4CCc5ccccc54)cc3)sc2cc1OC -6.69%, COc1cccc(-n2c(C)nc3cc(C(=O)O)ccc32)c1 4.08%, COC(=O)CN1C(C(=O)c2ccccc2)=C(OC(=O)c2ccc(F)cc2)c2ccccc2S1(=O)=O -0.955%, Cc1nn2c(=O)cc(COC(=O)c3ccc(NC(=O)COc4ccc(Cl)cc4)cc3)nc2s1 -1.89%, COc1ccc(OC)c(CNC(=O)c2cc3ccc4cccnc4c3[nH]2)c1 16.1%, O=c1c2oc3ccccc3c2n(Cc2ccccc2)c(=O)n1Cc1ccco1 0.249%, COc1ccc(C)cc1NC(=O)C(=O)NCCc1csc2nc(-c3ccccc3F)nn12 4.28%, O=C(Cn1nnc2sc(-c3ccccc3)cc2c1=O)Nc1cccc(C(F)(F)F)c1 1.27%, Cc1ccccc1Nc1c(-c2c[nH]c3ccccc23)nc2ccccn12 1.89%, CC1CCN(S(=O)(=O)c2ccc3nc(NCc4ccc(F)cc4)ccc3c2)CC1 -5.32%, Cc1c(NC(=O)c2cc(-c3ccc(Br)cc3)on2)c(=O)n(-c2ccccc2)n1C 4.68%, CCc1ccc(NC(=O)c2sc3nc(C)c(C(=O)Nc4ccc(C)cc4C)c(-c4ccco4)c3c2N)cc1 -0.643%, COc1ccc(Nc2sc(C(=O)c3ccccc3)c(N)c2C(=O)Nc2cc(C)ccc2C)c(OC)c1 -19.5%, Cc1oc(-c2ccccc2)nc1CNC(=O)NC1CCCCC1 5.08%, Cc1ccc(NC(=O)c2cc(S(=O)(=O)NCCC3=CCCCC3)ccc2F)cc1C -15.1%, Cc1cccc(-c2nc3scc(CCNS(=O)(=O)c4ccc(F)cc4C)n3n2)c1 -2.87%

outcome, inactive:
COc1ccc(NC(=O)Cn2c(=O)n(CC(=O)NCCc3ccccc3)c(=O)c3ccccc32)cc1, Cc1ccc(NC(=O)c2cc3c(-c4ccccc4)nn(-c4ccccc4)c3s2)cc1, COc1cc(-c2noc(-c3ccc(N(C)C)c([N+](=O)[O-])c3)n2)cc(OC)c1OC, CCOc1ccc(Nc2sc(C(=O)c3ccc4c(c3)OCO4)c(N)c2S(=O)(=O)c2ccc(C)cc2)cc1, CCC1CN(C(=O)Nc2cccc(OC)c2)c2ccccc2O1 (stereo unspecified), COc1ccc2c(c1)c1c(c(=O)n(-c3ccc(F)c(Cl)c3)c(=O)n1CC(N)=O)n2C, COc1ccc(-n2c(=O)c3ccc(C(=O)NCc4ccc(C)cc4)cc3n(Cc3cccc(Cl)c3)c2=O)cc1, Cc1ccc2c(c1)cc1c(=O)n(Cc3ccc(Cl)cc3)nc(C)n12, COc1ccc(CN(Cc2ccco2)C(=O)c2ccccc2F)cc1, COc1ccc(-c2nc3sc(CCNC(=O)Cc4ccccc4)c(C)n3n2)cc1, COc1ccccc1CNC(=O)C(NS(=O)(=O)c1ccc2c(c1)CCN2C(C)=O)C(C)C (stereo unspecified), CC(C)(C)C1CCc2c(sc(NC(=O)c3noc4c3CCCC4)c2C#N)C1 (stereo unspecified), Cc1ccc(-c2nnn3c2nc(NC2CCC(C)CC2)c2ccccc23)cc1 (stereo unspecified), CC1CCCCN1C(=O)c1ccc2c(c1)N(Cc1ccc(F)cc1)C(=O)c1ccccc1S2(=O)=O (stereo unspecified), Cc1ccc(S(=O)(=O)c2cnc(SCC(=O)Nc3ccc4c(c3)OCCO4)[nH]c2=O)cc1C, CCOc1ccc(CCNc2ncnc3onc(-c4ccc(Cl)cc4)c23)cc1, CC(C)(C)OC(=O)N1CCC(c2nnc(SCc3ccccc3F)o2)CC1, CCn1nnc2cc(C(=O)Nc3ccc(C)cc3Br)ccc21, Cc1ccn2c(c1)nc(=O)c1cc(S(=O)(=O)N3CCCCC3)c(Cl)cc12, CCc1ccccc1NC(=O)CN(c1ccc(OC)cc1)S(=O)(=O)c1c(C)n[nH]c1C, COc1cccc(CNC(=O)CCCN2C(=O)CSc3c2c(C)nn3-c2ccccc2)c1OC, CCOC(=O)c1c(NC(=O)/C=C/c2ccc(OCC)c(OC)c2)sc2c1CCC2

From PubChem BioAssay AID1963576 (National Center for Advancing Translational Sciences (NCATS), 2024)
